Source: patent US20220380436A1 (BOARD OF TRUSTEES OF THE UNIVERSITY OF ILLINOIS, published 2022)

B1: legacy sPDGFRα-Fc (PDGFRα ectodomain, IEGRMD linker, human IgG1 upper hinge and Fc) (Fc fusion)
chain: QLSLPSILPNENEKVVQLNSSFSLRCFGESEVSWQYPMSEEESSDVEIRNEENNSGLFVTVLEVSSASAAHTGLYTCYYNHTQTEENELEGRHIYIYVPDPDVAFVPLGMTDYLVIVEDDDSAIIPCRTTDPETPVTLHNSEGVVPASYDSRQGFNGTFTVGPYICEATVKGKKFQTIPFNVYALKATSELDLEMEALKTVYKSGETIVVTCAVFNNEVVDLQWTYPGEVKGKGITMLEEIKVPSIKLVYTLTVPEATVKDSGDYECAARQATREVKEMKKVTISVHEKGFIEIKPTFSQLEAVNLHEVKHFVVEVRAYPPPRISWLKNNLTLIENLTEITTDVEKIQEIRYRSKLKLIRAKEEDSGHYTIVAQNEDAVKSYTFELLTQVPSSILDLVDDHHGSTGGQTVRCTAEGTPLPDIEWMICKDIKKCNNETSWTILANNVSNIITEIHSRDRSTVEGRVTFAKVEETIAVRCLAKNLLGAENRELKLVAPTLRSEIEGRMD[human IgG1 Fc left out here]
B2: wild-type soluble PDGFRα-Fc (redesigned fusion to human IgG1 Fc) (Fc fusion)
chain: QLSLPSILPNENEKVVQLNSSFSLRCFGESEVSWQYPMSEEESSDVEIRNEENNSGLFVTVLEVSSASAAHTGLYTCYYNHTQTEENELEGRHIYIYVPDPDVAFVPLGMTDYLVIVEDDDSAIIPCRTTDPETPVTLHNSEGVVPASYDSRQGFNGTFTVGPYICEATVKGKKFQTIPFNVYALKATSELDLEMEALKTVYKSGETIVVTCAVFNNEVVDLQWTYPGEVKGKGITMLEEIKVPSIKLVYTLTVPEATVKDSGDYECAARQATREVKEMKKVTISVHEKGFIEIKPTFSQLEAVNLHEVKHFVVEVRAYPPPRISWLKNNLTLIENLTEITTDVEKIQEIRYRSKLKLIRAKEEDSGHYTIVAQNEDAVKSYTFELLTQVPSSILDLVDDHHGSTGGQTVRCTAEGTPLPDIEWMICKDIKKCNNETSWTILANNVSNIITEIHSRDRSTVEGRVTFAKVEETIAVRCLAKNLLGAENRELKLVAPTLRSEGGGS[human IgG1 Fc left out here]
notes: also called sPDGFRα-Fc; sPDGFRα-Fc WT
B3: sPDGFRα-Fc Y206S (redesigned IgG1 Fc fusion) (Fc fusion)
chain: QLSLPSILPNENEKVVQLNSSFSLRCFGESEVSWQYPMSEEESSDVEIRNEENNSGLFVTVLEVSSASAAHTGLYTCYYNHTQTEENELEGRHIYIYVPDPDVAFVPLGMTDYLVIVEDDDSAIIPCRTTDPETPVTLHNSEGVVPASYDSRQGFNGTFTVGPYICEATVKGKKFQTIPFNVSALKATSELDLEMEALKTVYKSGETIVVTCAVFNNEVVDLQWTYPGEVKGKGITMLEEIKVPSIKLVYTLTVPEATVKDSGDYECAARQATREVKEMKKVTISVHEKGFIEIKPTFSQLEAVNLHEVKHFVVEVRAYPPPRISWLKNNLTLIENLTEITTDVEKIQEIRYRSKLKLIRAKEEDSGHYTIVAQNEDAVKSYTFELLTQVPSSILDLVDDHHGSTGGQTVRCTAEGTPLPDIEWMICKDIKKCNNETSWTILANNVSNIITEIHSRDRSTVEGRVTFAKVEETIAVRCLAKNLLGAENRELKLVAPTLRSEGGGS[human IgG1 Fc left out here]
notes: also called Soluble PDGFRα-Fc Y206S; the Y206S mutant

biological target: T1, membrane-tethered HCMV trimer (full-length gH, gL-FLAG, gO-8his) of strain TB40/E on Expi293F cells (human cytomegalovirus strain TB40/E); experiment: flow cytometry, sPDGFRα-Fc on Expi293F cells expressing the trimer
T1 construct: also called membrane-localized HCMV trimer; HCMV trimer expressed at the cell surface; not shown: C-terminal FLAG tag

Question: Does B1 bind?
Answer: Result: binds

Question: Does B2 bind?
Answer: Result: binds

Question: Does B3 bind?
Answer: Result: binds
